Experimental data as given in ChEMBL document CHEMBL4888484, “Replenishing the malaria drug discovery pipeline: Screening and hit evaluation of the MMV Hit Generation Library 1 (HGL1) against asexual blood stage Plasmodium falciparum ,using a nano luciferase reporter read-out” (2022).
Hit rate of the full screen: of about 150,000 compounds, about 540 (0.36%) showed an effect of 50% or more. Some of the results follow.

These compounds were tested on Plasmodium falciparum (assay: Primary screen in NF54 nanoGlo assay, in single point, at 2uM, 72h; a lower Z score goes with more inhibition). Details: timepoint 72 hour.
Type: functional, Erythrocyte
With `O=C(c1ccccc1O)N1CCC(n2ncc3c2CNC3)CC1` the “% Inhibition” value was -6% and the Z score was 0.92.
For `c1ccc2c(c1)nc(C1CC1)n2Cc1nc(C2CC2)no1`, the “% Inhibition” value was 10% and the Z score was -1.48.
`O=C(Cc1ccccc1Cl)Nc1ccc(-c2nnc3n2CCCC3)cc1` was tested, and the “% Inhibition” value was -21% and the Z score was 1.94.
`Cc1cc(OC2CN(C(=O)c3ccccc3F)C2)cc(=O)n1C1CC1` was tested, and the “% Inhibition” value was -25% and the Z score was 2.91.
In the case of `Cc1cc2c(cc1Br)CN(C(=O)c1ncn(C)n1)CC2`, the “% Inhibition” value is reported as -4% and the Z score is reported as 0.42.
`COc1ccc2cc1Oc1cccc(c1)CO[C@H]1CCN(C(=O)c3ccc(=O)n(C)c3)C[C@H]1NC(=O)CC2` was tested, and the “% Inhibition” value was -7% and the Z score was 1.34.
In the case of `C[C@@H]1CN(CC(=O)N(C)Cc2csc(-c3ccccc3)n2)C[C@H](C)O1`, the “% Inhibition” value is reported as -15% and the Z score is reported as 1.94.
`COCc1ccc(NC(=O)C[C@@H]2C(=O)Nc3ccccc32)cc1` was tested, and the “% Inhibition” value was -14% and the Z score was 1.93.
`CCCNC(=O)[C@H](C)NC(=O)Nc1cccc(F)c1` was tested, and the “% Inhibition” value was -1% and the Z score was 0.16.
`O=C(Nc1ccc2c(c1)N(C(=O)c1ccccc1)CCC2)OCc1ccccc1` was tested, and the “% Inhibition” value was 11% and the Z score was -1.36.
For `CCOc1ccc(S(=O)(=O)N(C)C)cc1NC(=O)N1CCOC[C@@H]1CCO`, the “% Inhibition” value was -2% and the Z score was 0.27.
For `Cc1cc(OCC(=O)Nc2ccc(F)cc2)nc(N2CCC[C@H](C)C2)n1`, the “% Inhibition” value was -13% and the Z score was 2.14.
In the case of `CC(C)=CCN1CCC[C@H](CNC(=O)c2ccncc2)C1`, the “% Inhibition” value is reported as -2% and the Z score is reported as 0.42.
In the case of `CCCN(C(=O)Cc1cccc(C)c1)[C@H]1CCNC1`, the “% Inhibition” value is reported as -11% and the Z score is reported as 1.07.
In the case of `Cc1nc(O)c2c(n1)CN([C@@H](C)c1nc3ccccc3n1C(F)F)C2`, the “% Inhibition” value is reported as -7% and the Z score is reported as 0.98.
For `Cc1cc(-c2nc(COCC(F)(F)C(F)F)no2)n[nH]1`, the “% Inhibition” value was -4% and the Z score was 0.63.
In the case of `Cc1c(C(=O)NC2CCCCC2C(F)(F)F)nnn1C1CCNCC1` (stereo not given), the “% Inhibition” value is reported as -13% and the Z score is reported as 2.21.
`Cc1cccc(N2CCN(C(=O)CCn3cncn3)CC2)c1C` was tested, and the “% Inhibition” value was -4% and the Z score was 0.56.
`O=C(NCc1ccc(F)cc1)c1cn2c(n1)CC[C@H](c1ccccc1)C2` was tested, and the “% Inhibition” value was -4% and the Z score was 0.53.
With `COc1ccc(-c2cnc(C(=O)NCCc3c[nH]c4ccccc34)o2)cc1` the “% Inhibition” value was -7% and the Z score was 0.97.
With `O=C(c1ccc2scnc2c1)N1CCC2(CCC(O)CC2)CC1` the “% Inhibition” value was 2% and the Z score was -0.28.
With `COC[C@H](C)NC(=O)COc1ccc(Cl)cc1Br` the “% Inhibition” value was -1% and the Z score was 0.21.
In the case of `CCCCc1ccc(NCc2c[nH]c3ccccc23)cc1`, the “% Inhibition” value is reported as 1% and the Z score is reported as -0.17.
`O=C(NC(c1ccccc1)c1ccccc1)N1CCC(N2C(=O)COC2=O)CC1` was tested, and the “% Inhibition” value was -15% and the Z score was 2.82.
`CC(C)CO[C@@H](C)C(=O)Nc1ccc(F)cc1` was tested, and the “% Inhibition” value was -4% and the Z score was 0.81.
For `Cc1ccc(F)c(C(=O)NC[C@H]2CC(C(N)=O)=NO2)c1`, the “% Inhibition” value was -3% and the Z score was 0.52.
For `Cn1cc(S(=O)(=O)NC[C@H](O)c2cccs2)cn1`, the “% Inhibition” value was -8% and the Z score was 1.31.
In the case of `CN1C(=O)C[C@H](NS(=O)(=O)Cc2cc(Cl)ccc2F)C1=O`, the “% Inhibition” value is reported as 7% and the Z score is reported as -0.58.
`CCCCc1ccc(N(C)C(=O)c2cnc(C(=O)O)cn2)cc1` was tested, and the “% Inhibition” value was -11% and the Z score was 2.04.
In the case of `COCCN1CCN(C(=O)Cc2ccc(C)nc2)CC1=O`, the “% Inhibition” value is reported as -12% and the Z score is reported as 1.98.
For `CCCN(C(=O)c1ccc(C)cc1)c1nc(-c2ccc(C3CCCCC3)cc2)cs1`, the “% Inhibition” value was -4% and the Z score was 0.58.
In the case of `Cc1cccc(OCC(=O)c2ccc3c(c2)N([C@@H](C)C(=O)N2CCCC2)C(=O)CO3)c1C`, the “% Inhibition” value is reported as -16% and the Z score is reported as 1.42.
With `COc1ccc(S(=O)(=O)N2C[C@H](C)N(C(=O)N3CCOCC3)C2)cc1` the “% Inhibition” value was 26% and the Z score was -2.98.
`COCCN1CC[C@H](N2CCCN(C(=O)c3ccc(C(C)C)cc3)CC2)C1=O` was tested, and the “% Inhibition” value was -11% and the Z score was 1.42.
In the case of `CC(C)n1cc(NC(=O)N2CCCC(C)(C)CC2)cn1`, the “% Inhibition” value is reported as -10% and the Z score is reported as 1.29.
`Nc1nnc(CCCC2CCCCC2)s1` was tested, and the “% Inhibition” value was -36% and the Z score was 4.26.
`Cc1cc(NC(=O)C(C)N2CCOC(c3nc(C)cs3)C2)on1` (stereo not given) was tested, and the “% Inhibition” value was -15% and the Z score was 1.29.
With `CC(C)Cn1ncc(NC(=O)N2CC(C)(C#N)C2)c1C1CC1` the “% Inhibition” value was 13% and the Z score was -1.85.
With `N#Cc1ccc(CC(=O)NC2CC(C3CCCCC3)C2)cn1` (stereo not given) the “% Inhibition” value was 6% and the Z score was -0.86.
In the case of `O=C(NCCOCCn1ccnc1)OCc1ccccn1`, the “% Inhibition” value is reported as -4% and the Z score is reported as 0.46.
For `Cc1nccc(N2CC[C@](C)(O)[C@H](Cc3ccccc3)C2)n1`, the “% Inhibition” value was 17% and the Z score was -2.2.
For `O=C(c1cccs1)N1CC[C@H](c2nnc(Cc3ccccc3)o2)C1`, the “% Inhibition” value was -5% and the Z score was 0.6.
In the case of `O=C(N[C@@H]1CCOc2c(F)cccc21)c1cnc2n1CCCCC2`, the “% Inhibition” value is reported as -2% and the Z score is reported as 0.32.
In the case of `Nc1nc(N2CCC[C@H](CCC(=O)O)C2)cc(-n2cccn2)n1`, the “% Inhibition” value is reported as 16% and the Z score is reported as -2.1.
In the case of `CC(C(=O)NCC1CCCO1)N1CCCC1Cn1cccn1` (stereo not given), the “% Inhibition” value is reported as -7% and the Z score is reported as 0.55.
In the case of `COCc1nc(C2(CC3CC3)CCN(S(=O)(=O)C(C)C)CC2)no1`, the “% Inhibition” value is reported as -15% and the Z score is reported as 1.95.
With `O=C(NCCOc1cccc(F)c1)c1cccnc1NC1CCCC1` the “% Inhibition” value was 36% and the Z score was -5.25.
In the case of `COc1cc(-c2cnnc(NC[C@H](C)Oc3cccnc3)n2)cc(OC)c1OC`, the “% Inhibition” value is reported as -13% and the Z score is reported as 2.61.
With `Cc1ccc(C(=O)N/C(=N/c2cccc(C)c2)N2CCN(Cc3cccc(F)c3)CC2)cc1` the “% Inhibition” value was -2% and the Z score was 0.45.
With `Cc1cccc(Oc2cc(N)cc(Oc3cccc(C)c3)c2)c1` the “% Inhibition” value was 33% and the Z score was -0.75.
With `COCCCN1C(=O)C2(CCN(Cc3ccoc3)CC2)Nc2ccccc21` the “% Inhibition” value was -6% and the Z score was 0.86.
For `O=c1cc2c(nn1CN1CCC(Cc3ccccc3)CC1)CCC2`, the “% Inhibition” value was 1% and the Z score was -0.09.
`Cn1cc(-c2ccccc2)cc1C(N)=O` was tested, and the “% Inhibition” value was -10% and the Z score was 1.12.
For `COCCNS(=O)(=O)c1cc(C)c(Br)cc1C(C)C`, the “% Inhibition” value was -7% and the Z score was 0.67.
In the case of `O=C(CCC(F)(F)F)N1CCC[C@H](c2ncncc2-c2ccccc2Cl)C1`, the “% Inhibition” value is reported as 2% and the Z score is reported as -0.29.
